Source: the supplement of paper PMC6135742
Counter-ions that a name gives are not always drawn. ± gives the standard deviation of the averaged measurements. The full ranking holds about 2,600 compounds; the median of “MBP+ mature oligodendrocyte number relative to DMSO vehicle control” is about -0.34, and the highest 2% start at about 13. The list shows a part of the results.

tested on: jimpy (Plp1 jimpy) mouse iPSC-derived oligodendrocyte progenitor cells; assay: MBP+ mature oligodendrocyte number relative to DMSO vehicle control (SDs above negative control mean); higher = more surviving jimpy oligodendrocytes (rescue); settings: 10 µM; 3 days
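Further: 10 µM single dose with 3-day oligodendrocyte differentiation.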

| Structure (SMILES) | MBP+ mature oligodendrocyte number |
| --- | --- |
| CCCCOc1ccc(C(=O)Nc2ccc(F)cc2F)cc1 | 6.85 |
| Nc1nc(OCc2cc(Br)cs2)c2[nH]cnc2n1 [Lomeguatrib] | 1.35 ± 0.6 |
| CC(C)Oc1ccc2c(=O)c(-c3ccccc3)coc2c1 [Ipriflavone (Osteofix)] | 1.12 |
| NC1(Cc2ccc(Cl)cc2)CCN(c2ncnc3[nH]ccc23)CC1 | < -6.01 |
| O=C(O)CCC(C(=O)O)N1C(=O)c2ccccc2C1=O [L-Glutamic acid, N-phthaloyl-] | 0.108 |
| Cc1cc(C(C)Nc2ccccc2)c2nc(N3CCOCC3)cc(=O)n2c1 (stereo not given) | -4.08 |
| CCc1cc2c(cc1CC)CC(NC[C@H](O)c1ccc(O)c3[nH]c(=O)ccc13)C2 [Indacaterol Maleate] | -4.98 |
| c1cc(CN2CCCCC2)cc(OCCCNc2nc3ccccc3s2)c1 | -2.5 |
| Cc1c(-c2ccc(O)cc2)n(Cc2ccc(OCCN3CCCCCC3)cc2)c2ccc(O)cc12 [Bazedoxifene HCl] | < -4.81 |
| C=C[C@]1(C)C[C@@H](OC(=O)CSC(C)(C)CNC(=O)[C@H](N)C(C)C)[C@]2(C)[C@H](C)CC[C@]3(CCC(=O)[C@H]32)[C@@H](C)[C@@H]1O [Valnemulin HCl] | -3.9 |
| CCN(CC)CCNC(=O)c1ccc(N)cc1 [Procainamide hydrochloride] | -0.104 |
| NC[C@H](O)c1ccc(O)c(O)c1 [Noradrenaline bitartrate monohydrate] | 0.342 |
| c1ccc2c(c1)CC(N1CCN(c3cccc4c3OCCO4)CC1)C2 | 9.4 |
| CCn1c(N)c(C(=O)NC)c(=O)c2ccc(C#CC(C)(O)COC)nc21 (stereo not given) | -2.67 |
| CC[C@H]1OC(=O)[C@H](C)[C@@H](O[C@H]2C[C@@](C)(OC)[C@@H](O)[C@H](C)O2)[C@H](C)[C@@H](O[C@@H]2O[C@H](C)C[C@H](N(C)C)[C@H]2O)[C@](C)(O)C[C@@H](C)CN(C)[C@H](C)[C@@H](O)[C@]1(C)O [Azithromycin dihydrate] | -3.22 |
| CC[C@H]1OC(=O)[C@H](C)[C@@H](O[C@H]2C[C@@](C)(OC)[C@@H](O)[C@H](C)O2)[C@H](C)[C@@H](O[C@@H]2O[C@H](C)C[C@H](N(C)C)[C@H]2O)[C@](C)(O)C[C@@H](C)CN(C)[C@H](C)[C@@H](O)[C@]1(C)O [Azithromycin] | -4.61 |
| CN1CCc2nc(C(=O)N[C@@H]3C[C@@H](C(=O)N(C)C)CC[C@@H]3NC(=O)C(=O)Nc3ccc(Cl)cn3)sc2C1 [Edoxaban] | 2.6 |
| OCCn1cc(-c2ccc3c(c2)CC/C3=N\O)c(-c2ccncc2)n1 | 1.07 |
| CN[C@H]1CC[C@@H](c2ccc(Cl)c(Cl)c2)c2ccccc21 [Sertraline hydrochloride] | < -3.97 |
| CN[C@H]1CC[C@@H](c2ccc(Cl)c(Cl)c2)c2ccccc21 [Sertraline HCl] | < -6.35 |
| COCCNC(=O)COc1ccc(OCCNC[C@H](O)COc2ccccc2)cc1 [ZD 7114 hydrochloride] | 0.816 |
| O=C(O)c1cccc(-c2noc(-c3ccccc3F)n2)c1 [Ataluren (PTC124)] | 4.97 |
| Nc1ccc(S(=O)(=O)Nc2nccs2)cc1 [Sulfathiazole] | 0.342 |

| Structure (SMILES) | MBP+ mature oligodendrocyte number |
| --- | --- |
| Cc1ccc(-c2cc(C(F)(F)F)nn2-c2ccc(S(N)(=O)=O)cc2)cc1 [Celecoxib] | 2.77 ± 1.8 |
| CC(C)[N+]1(C)[C@@H]2CC[C@H]1C[C@@H](OC(=O)C(CO)c1ccccc1)C2 (stereo not given in full) [Ipratropium bromide] | -0.439 |
| CC(C)[N+]1(C)[C@@H]2CC[C@H]1C[C@@H](OC(=O)C(CO)c1ccccc1)C2 (stereo not given in full) [Ipratropium Bromide] | 0.883 |
| C=CC(=O)Nc1cccc(Sc2nc(Nc3ccc(N4CCN(C)CC4)cc3)ncc2Cl)c1 | < -6.7 |
| CNCCc1cnc(CCC(c2ccccc2)c2ccccc2)[nH]1 [N-Methylhistaprodifen dioxalate salt] | < -4.47 |
| CCOC(=O)[C@H]1O[C@@H]1C(=O)N[C@@H](CC(C)C)C(=O)NCCC(C)C [Aloxistatin] | -3.44 |
| O=C1c2c(O)cc(O)cc2O[C@H](c2ccc(O)c(O)c2)[C@H]1O (racemic) [(±)-Taxifolin] | 0.753 |
| CC(C)NC[C@@H](C(=O)N1CCN(c2ncnc3c2[C@H](C)C[C@H]3O)CC1)c1ccc(Cl)cc1 | < -6.01 |
| Cc1ccc([C@@H]2O[C@H](CO)[C@@H](O)[C@H](O)[C@H]2O)cc1Cc1ccc(-c2ccc(F)cc2)s1 [Canagliflozin] | 1.14 |
| CC(C)(C)c1cc(C(C)(C)C)c(NC(=O)c2c[nH]c3ccccc3c2=O)cc1O [Ivacaftor (VX-770)] | 5 |
| CN1CCN(CC(=O)N2c3ccccc3C(=O)Nc3cccnc32)CC1 [Pirenzepine dihydrochloride] | 1.68 |
| COC(=O)Nc1nc2cc(Sc3ccccc3)ccc2[nH]1 [Fenbendazole] | -2.63 |
| COc1cccc(C=NCCN=Cc2cccc(OC)c2[O-])c1[O-].[Cl-].[Mn+3] | 5.98 |
| COCC(=O)NC/C=C/c1ccc2ncnc(Nc3ccc(Oc4ccc(C)nc4)c(C)c3)c2c1 | -1.2 |
| Cn1c(=O)c2c(ncn2CC2OCCO2)n(C)c1=O [Doxofylline] | 4.21 |
| NC[C@@H]1O[C@H](C23CC4CC(CC(C4)C2)C3)Cc2c1ccc(O)c2O | < -3.34 |
| CCOc1nc2cccc(C(=O)O)c2n1Cc1ccc(-c2ccccc2-c2nnn[nH]2)cc1 [Candesartan] | 0.433 |
| C[C@@](Cc1ccc(O)c(O)c1)(NN)C(=O)O [Carbidopa] | -0.737 |
| C=CC(=O)Nc1cccc(Oc2nc(Nc3ccc(N4CCN(C)CC4)cc3)ncc2Cl)c1 | < -6.7 |
| Nc1ncnc2c1ncn2[C@@H]1O[C@H](CO)[C@@H](O)[C@@H]1O [Vidarabine] | -4.07 |
| CC(=O)OC[C@H]1O[C@@H]([S-])[C@H](OC(C)=O)[C@@H](OC(C)=O)[C@@H]1OC(C)=O.CCP(CC)CC.[Au+] [Auranofin] | < -3.85 |
| CCCCCCCCCC(=O)N[C@@H](Cc1c[nH]c2ccccc12)C(=O)N[C@H](CC(N)=O)C(=O)N[C@@H](CC(=O)O)C(=O)N[C@@H]1C(=O)NCC(=O)N[C@@H](CCCN)C(=O)N[C@@H](CC(=O)O)C(=O)N[C@H](C)C(=O)N[C@@H](CC(=O)O)C(=O)NCC(=O)N[C@H](CO)C(=O)N[C@@H]([C@H](C)CC(=O)O)C(=O)N[C@@H](CC(=O)c2ccccc2N)C(=O)O[C@@H]1C [Daptomycin] | -0.24 |
